Molecules are shown by their SMILES.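 Five concentrations, 48 hours, 96-well plates. Abbreviation: GI50, concentration required for 50% inhibition of growth.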 The source made the active and inactive calls. Cut-off read from the data, not from the text of the source: active = GI50 up to about 1.1 µM and inactive = higher. A value given as a limit tells only on which side of the number the result lay.

This experiment relates to NCI-H322M. Briefly: NCI tumour cell line growth inhibition, 48 h.
As to `O=C1Sc2ccccc2C(=O)N2CCSC12` (stereo unspecified), the GI50 was inactive: > 100 µM.
The figure for `O=C(O)c1cn2c3c(cc(N4CCN(CCO)CC4)cc3c1=O)SCC2` is inactive: 74 µM; for `CC1C2(C)OC(=N)C(C#N)(C(C)O2)C1(C#N)C#N` (stereo unspecified) it is inactive: > 100 µM; for `O=C1CC(c2c[nH]c3ccccc23)C(=O)N1c1ccccc1` (stereo unspecified) it is inactive: > 100 µM.
Under `CC[C@@H](O)C[C@H]1CCC[C@@]2(C[C@@H]3OC(=O)/C=C/[C@@](C)(O)[C@@H](O)[C@H](C)[C@@H](O)[C@H](OC4CCC(N(C)C)C(C)O4)[C@@H](O)[C@](C)(O)CCCCC/C=C/[C@@H]4CC(C)(C)O[C@@]4(O)C[C@H](O2)[C@H]3C)O1` (stereo partly specified) stands inactive: 9.59 µM.
The figure for `COc1cc2c(c(OC)c1OC)-c1ccc(SC)c(=O)cc1C(NC(=O)c1ccccc1)CC2` (stereo unspecified) is active: < 0.01 µM.
`CN(C)CC1CCC/C(=C\c2ccc(OC(=O)c3ccc(Cl)cc3)cc2)C1=O` (stereo unspecified): the GI50 was inactive: 5.07 µM.
In the case of `OCCCNCc1ccncc1`, the GI50 is inactive: > 100 µM.
The figure for `NC(=O)C1CCCN1Cc1ccc2c(c1)OCO2` (stereo unspecified) is inactive: > 100 µM.
The figure for `CC(=O)Oc1ccc2c(c1)CC[C@@H]1C2CC[C@]2(C)C(=O)NC(=O)CC12` (stereo partly specified) is inactive: > 100 µM.
Under `COc1ccc(Nc2nnc(CCCCCCCCc3nnc(Nc4ccc(OC)cc4)o3)o2)cc1` stands inactive: > 100 µM; under `C[n+]1ccc2/c(=C\C#N)c3ccccc3n21`, inactive: 23.9 µM; under `CC(=O)OCC1OC(n2c(N)c(C#N)c(-c3cccc(Cl)c3)c(C#N)c2=S)C(OC(C)=O)C(OC(C)=O)C1OC(C)=O` (stereo unspecified), inactive: 43.2 µM.
In the case of `N#CCc1nc(-c2ccccc2)n[nH]1`, the GI50 was inactive: > 100 µM.
The figure for `CCOC(=O)COc1cc(-c2ccccc2)nc2cc(F)ccc12` is inactive: > 100 µM; for `CC(=O)NNc1nc(C)c(C(=O)/C=C/C=C/c2ccccc2)s1` it is inactive: > 100 µM; for `COc1ccccc1NC(=S)Nc1cc(C)ccn1` it is inactive: > 100 µM.
Under `COC(=O)CCC(C)[C@H]1CCC2C3C(C[C@H](OC(C)=O)[C@@]21C)[C@@]1(C)CCC2(C[C@H]1C[C@H]3OC(C)=O)OOC1(CCCCC1)OO2` (stereo partly specified) stands inactive: > 100 µM; under `COc1ccc([C@H]2CC(=O)NCCCCN2)cc1`, inactive: > 100 µM; under `CCOC(=O)c1nc(-c2ccccc2)oc1OCC`, inactive: > 100 µM.
The figure for `O=C1c2ccccc2C(=O)c2c(NC(=O)C(Cl)CCl)cccc21` (stereo unspecified) is inactive: 17.5 µM; for `COc1ccccc1OCC(=N/NC(=O)c1ccncc1)/N=C/c1ccncc1` it is inactive: > 100 µM.
With `O=c1[nH]c(=O)n(C2CC(O)C(CO)O2)cc1OCCc1ccccc1` (stereo unspecified), the GI50 was inactive: > 100 µM.
The figure for `CC(C)(C)OC(=O)NC(Cc1ccc(OCc2ccccc2)cc1)C(=O)NC(COCc1ccccc1)C(=O)Oc1c(Cl)c(Cl)c(Cl)c(Cl)c1Cl` (stereo unspecified) is inactive: 25 µM; for `Cc1ccccc1/N=N/c1cc(C)c(/N=N/c2c(O)ccc3ccccc23)cc1C` it is inactive: > 100 µM.
Under `C#CCNC(=O)CCC(N)C(=O)O` (stereo unspecified) stands inactive: > 100 µM.
As to `CC(C)OCC1CC(CC(=O)Nc2nncs2)C(=O)O1` (stereo unspecified), the GI50 was inactive: > 100 µM.
Under `Cc1c2ccccc2c(C)n2c1nc1ccccc12` stands inactive: 1.95 µM; under `CCOC(=O)N1CCc2cc(OC)c(OC)cc2/C1=C\c1ccc(OC)c(OC)c1`, inactive: 42.3 µM.
Consider `O=C(NCCOC(=O)CCCCCCCCC(=O)OCCNC(=O)NC(=O)c1cn(Cc2ccccc2)c(=O)[nH]c1=O)NC(=O)c1cn(Cc2ccccc2)c(=O)[nH]c1=O`, for which the GI50 was inactive: > 100 µM.
The figure for `N=C(N)NS(=O)(=O)c1ccc(N/N=C2/CCOC2=O)cc1` is inactive: > 100 µM; for `NC(C(=O)O)C(O)c1c[nH]cn1` (stereo unspecified) it is inactive: > 100 µM.
With `CCOC(=O)/C=C(\C(=O)OCC)n1cc(C)c(=O)n(Cc2cnnn2COCCOC(C)=O)c1=O`, the GI50 is inactive: 27.9 µM.
In the case of `COC(=O)C(Cc1ccccc1)NC(=O)CNC(=O)CSc1nnc(COc2ccc(Cl)cc2)n1-c1ccccc1` (stereo unspecified), the GI50 was inactive: 18.4 µM.
The figure for `N#Cc1nnc2c3c(-c4ccc(Cl)cc4)c(C#N)c(O)nc3nn2c1N` is inactive: 11.8 µM; for `CCOC1NC(=O)c2ccccc21` (stereo unspecified) it is inactive: > 100 µM; for `NNc1cnn(-c2ccccc2)c(=O)c1Cl` it is inactive: > 100 µM.
The figure for `NCCC(=O)N[C@H](Cc1cc(O)c(O)c(SCC(NC(=O)CC[C@H](N)C(=O)O)C(=O)NCC(=O)O)c1)C(=O)O` (stereo partly specified) is inactive: > 50 µM; for `O=[N+]([O-])c1cc(F)ccc1Sc1ccccc1` it is inactive: > 10 µM.
The figure for `Cc1cc(Cl)ccc1NC(=O)/C(Cc1nc2ccc(C(=O)c3ccccc3)cc2nc1O)=N/NC(=O)c1ccncc1` is inactive: > 100 µM; for `Nc1ncnc2c1nnn2C1CCC(CP(=O)(O)O)C1` (stereo unspecified) it is inactive: > 100 µM.
For `C/C(CCn1[nH]c(=O)ccc1=O)=N\OCCCc1ccccc1`, the GI50 is inactive: > 100 µM.
The figure for `Cc1ccc(-c2c(C#N)c(-c3ccc(C)cc3)n(NS(=O)(=O)c3ccccc3)c(=O)c2C#N)cc1` is inactive: > 100 µM; for `COc1cc([C@H]2OC[C@H]3[C@@H]2CO[C@@H]3c2cc(OC)c3c(c2)OCO3)cc(OC)c1OC` it is inactive: > 100 µM; for `CC(C)=C1C(=O)C[C@]2(C)C[C@H]3/C(=C(/C)CCC12)CC[C@@]3(C)O` (stereo partly specified) it is inactive: > 50 µM.
Under `O=C(OCc1ccccc1)c1ccccc1-c1c2ccc(=O)cc-2oc2cc(OCc3ccccc3)ccc12` stands inactive: 30.2 µM.
In the case of `NCc1ccc(-c2ccc(CN)s2)s1`, the GI50 is inactive: > 100 µM.
Consider `CC1CCN(CCC(=O)CC(c2ccccc2)c2c(O)c3ccccc3oc2=O)CC1` (stereo unspecified), for which the GI50 was inactive: > 100 µM.
Under `CCOC(=O)Nc1nn(C)/c(=N/Cc2ccccc2)s1` stands inactive: > 100 µM; under `CCOP(=O)(OCC)/C(C#N)=C/c1cc(O)ccc1O`, inactive: > 100 µM; under `C=CCOC(=O)CC[N+]1=CCC(c2ccccc2)(c2ccccc2)O1`, inactive: > 100 µM.
The figure for `COC(CC1(OC)OC(=O)C=C1N)OC` (stereo unspecified) is inactive: > 100 µM; for `c1ccc(CN2CCCN3CCN(CCCN(Cc4ccccc4)CC3)CC2)cc1` it is inactive: 81.5 µM.
The figure for `NNC(N)Nc1ccccc1` (stereo unspecified) is inactive: > 100 µM; for `CC1COS(=O)N1c1ccccc1` (stereo unspecified) it is inactive: > 100 µM; for `Oc1cc2c(cc1O)-c1[nH]ncc1CC2` it is inactive: 38.9 µM.
For the compound `S=C1c2cc(Cl)ccc2N=C(NC2CCCC2)C2CSCN12` (stereo unspecified), the GI50 was inactive: > 100 µM.
Regarding `CC(C)(C)OC(=O)N1[C@@H]2Cc3ccc(N)cc3[C@@]1(C)c1ccccc12`, the GI50 is inactive: 53.2 µM.
Under `O=C(CCc1ccccc1)On1c(-c2ccccc2)nc2ccccc2c1=S` stands inactive: 3.28 µM; under `CC(C)(C)COC(=O)C(C)(C)NC(=O)C(CC(=O)OCc1ccccc1)NC(=O)OCc1ccccc1` (stereo unspecified), inactive: > 100 µM.
Under `CC(=O)n1c2c(c(=O)n1-c1ccccc1)[S+]([O-])CCC2` (stereo unspecified) stands inactive: > 65.3 µM; under `Cc1ccc(S(=O)(=O)OCCN(CCOS(=O)(=O)c2ccc(C)cc2)c2ccc(C=O)cc2)cc1`, inactive: 22.7 µM.
The figure for `O=C(NCCCN(CCCCN(CCCNC(=O)C(F)(F)F)Cc1ccc2ccccc2c1)Cc1ccc2ccccc2c1)C(F)(F)F` is inactive: 11.1 µM.
Regarding `COP(=O)(OC)C(NC(=O)C(F)(F)F)(c1ccccc1)C(F)(F)F` (stereo unspecified), the GI50 was inactive: > 100 µM.
The figure for `CCCCN(CCCC)C(=O)C(=O)CC(=O)/C=C/c1ccccc1` is inactive: > 100 µM; for `O=c1cc(NNc2cccc(F)c2)[nH]c(=S)[nH]1` it is inactive: > 100 µM; for `CC(=O)OC[C@@]1(C)[C@@H]2[C@@H]3[C@@]4(CO[C@]3(C)C(=O)[C@@]3(OC(C)=O)C[C@H](C)[C@H](OC(C)=O)[C@@H]3[C@H]4OC(C)=O)[C@H](OC(=O)c3ccccc3)C[C@@H]21` it is inactive: > 100 µM.
On to `O=C1c2ccccc2C(=O)N1CCCCNOCCCN1C(=O)c2ccccc2C1=O`, for which the GI50 was inactive: > 100 µM.
Under `O=C(O)C1CCCCN1CCc1c[nH]c2ccccc12` (stereo unspecified) stands inactive: > 100 µM.
As for `Nc1sccc1S(=O)(=O)c1ccsc1N`, the GI50 is inactive: > 100 µM.
Under `O=C1c2c(ccc3c2CCCC3)CC12Cc1ccc3c(c1C2=O)CCCC3` stands inactive: > 100 µM; under `O=C1CC(C(OCc2ccccc2)C(OCc2ccccc2)C(COCc2ccccc2)OCc2ccccc2)CC(=O)N1` (stereo unspecified), inactive: > 75 µM; under `COc1cc(C2S/C(=C/c3ccccc3)C(=O)N2c2cccc([N+](=O)[O-])c2)cc(OC)c1OC` (stereo unspecified), inactive: > 100 µM.
With `C=CC(C)C1(CCCOCc2ccccc2)C(=S)N2CCC3(CC24CCCC14)OCCO3` (stereo unspecified), the GI50 was inactive: > 100 µM.
`COC(=O)C12C(=O)O[C@H](C)C1(O)C(C)C(=O)N2C` (stereo partly specified): the GI50 is inactive: > 100 µM.
The figure for `COc1cc(C2c3cc4c(cc3[C@@H](Nc3cccc(C(C)=O)c3)C3COC(=O)[C@H]23)OCO4)cc(OC)c1O` (stereo partly specified) is inactive: 4.23 µM.
Under `Oc1c2c(nc3cc4c(cc13)OCO4)-c1ccccc1CC2` stands inactive: > 100 µM; under `CC(=O)C(CN1C(=O)c2ccccc2C1=O)C(C)=O`, inactive: > 100 µM; under `COc1cc2c(cc1OC)[C@H]1C(=O)c3cc4c(cc3[C@H]1N(C)C2=O)OCO4`, inactive: > 35 µM.
The figure for `N#Cc1nc2ccccc2nc1N1CCN(c2ccc([N+](=O)[O-])cc2)CC1` is inactive: > 100 µM; for `COc1ccc2c(c1)/C(=C\c1c(Cl)[nH]c3cc(C)c(OC)cc13)C(=O)N2` it is inactive: 2.65 µM.
